{"source": "patent US20230279351A1", "about": "“ARTIFICIAL ANTIGEN-SPECIFIC IMMUNOREGULATORY T (AIRT) CELLS” (Seattle Children's Hospital (dba Seattle Children's …, priority 2019, published 2023)", "test_system": "murine CD4+ T cells transduced with lentiviral CISC", "assay": "Enrichment of lentiviral CISC (#1272) transduced murine CD4+ T cells", "conditions": "3 days Rapalog plus additional CD3/CD28 bead stimulation; initial 8.85%", "method": "FIG. 92 relates to lentiviral CISC constructs used to transduce murine CD4+ T cells and test selective expansion with Rapalog. Panel A depicts a diagram of lentiviral construct #1272. This construct was developed to assess proof-of-concept for enrichment of murine T cells using human CISC components in the presence of Rapalog. […] Panel B depicts a timeline of experimental procedures. […] Cells were evaluated for mCherry by flow cytometry at days 2 and 5 post-transduction.\nPanel A depicts flow plots show mCherry expression 2 days following mock or lentiviral transduction (#1272) of murine CD4+ T cells.\nAn important feature of a human antigen-specific airT platform is the potential to expand airT in vitro and in vivo using, as an example, the IL-2-CISC system. […] Enrichment was greatest (46.1%) when transduced T cells that were concurrently treated with both Rapalog and an additional CD3/CD28 bead stimulation."}
{"smiles": "CO[C@H]1[C@@H](O)[C@H](C)C[C@H](C)/C=C/C=C/C=C(\\C)[C@@H](c2c[nH]c3c(C)cccc23)C[C@@H]2CC[C@@H](C)[C@@](O)(O2)C(=O)C(=O)N2CCCC[C@H]2C(=O)O[C@H]([C@H](C)C[C@@H]2CC[C@@H](O)[C@H](OC)C2)C[C@H](O)[C@H](C)/C=C(\\C)[C@H]1O", "note": "[Rapalog]", "values": [{"measurement": "mCherry-positive cells (enrichment)", "result": 46.1, "unit": "%"}]}
